Laboratory results reported in article PMC6919601, “Identification of Plasmodium dipeptidyl aminopeptidase allosteric inhibitors by high throughput screening” (PLoS ONE, 2019).
Out of some 110,000 compounds screened, about 230 (0.21%) showed an effect of 50% or more. The list shows a part of the results.
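Also: 30 min substrate incubation versus DMSO and 10 µM JCP410 controls.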

What follows are compounds tested against DPAP1 (Plasmodium falciparum, UniProt Q8IIJ9) (assay: primary screen, percent inhibition; read by cleavage of a fluorogenic dipeptide substrate; higher = more effect of the substance).
Sequence of DPAP1 (Q8IIJ9 whole entry, looked up): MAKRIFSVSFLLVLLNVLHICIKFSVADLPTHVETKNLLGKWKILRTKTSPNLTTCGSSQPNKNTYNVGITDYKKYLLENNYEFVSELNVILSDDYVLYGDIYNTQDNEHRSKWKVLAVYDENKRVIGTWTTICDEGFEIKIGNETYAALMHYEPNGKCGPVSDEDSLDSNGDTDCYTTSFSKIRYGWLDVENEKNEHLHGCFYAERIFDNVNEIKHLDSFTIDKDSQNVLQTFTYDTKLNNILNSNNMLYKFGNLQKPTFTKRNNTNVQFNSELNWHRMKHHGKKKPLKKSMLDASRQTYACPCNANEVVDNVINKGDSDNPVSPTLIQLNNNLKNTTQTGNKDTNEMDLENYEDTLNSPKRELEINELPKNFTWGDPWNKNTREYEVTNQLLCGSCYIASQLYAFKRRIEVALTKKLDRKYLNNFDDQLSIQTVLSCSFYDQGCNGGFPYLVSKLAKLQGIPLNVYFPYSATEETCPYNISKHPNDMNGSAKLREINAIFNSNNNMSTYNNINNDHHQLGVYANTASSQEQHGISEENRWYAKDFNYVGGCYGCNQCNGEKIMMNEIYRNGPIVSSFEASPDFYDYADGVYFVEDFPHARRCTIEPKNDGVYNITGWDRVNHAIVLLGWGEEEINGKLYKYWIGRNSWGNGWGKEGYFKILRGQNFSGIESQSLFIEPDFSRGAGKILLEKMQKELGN
Design: species or system P. falciparum D10 trophozoite lysates; single well
In the case of `OC(CNC1CCCCC1)CNC1CCCCC1`, the “% Inhibition @ 10 uM” value is reported as 3.82%.
With `C=CCOc1ccc(C2c3c(-c4ccccc4O)n[nH]c3C(=O)N2CCCOCC)cc1` (stereo not drawn) the “% Inhibition @ 10 uM” value was 6.34%.
In the case of `Oc1ccc(Nc2nc(-c3ccccn3)cs2)cc1`, the “% Inhibition @ 10 uM” value is reported as -1.37%.
For `Cc1ccc(C23CC4CC(CC(CC(=O)N5CCOCC5)(C4)C2)C3)cc1`, the “% Inhibition @ 10 uM” value was -3.12%.
For `COC(=O)c1cc2cc(OC)ccc2[nH]1`, the “% Inhibition @ 10 uM” value was 4.83%.
`N#Cc1nc(/C=C/c2cccs2)oc1N1CCN(Cc2ccccc2)CC1` was tested, and the “% Inhibition @ 10 uM” value was -9.21%.
With `Cc1ccccc1S(=O)(=O)Cc1ccc(C(=O)NCCN2CCCC2)o1` the “% Inhibition @ 10 uM” value was 2.14%.
For `CCCCSC1=C(C#N)C(=O)NCS1`, the “% Inhibition @ 10 uM” value was 0.0289%.
In the case of `Cc1cccc(C(=O)N2CCN(Cc3ccc4c(c3)OCO4)CC2)c1`, the “% Inhibition @ 10 uM” value is reported as -1.52%.
`CC1CCN(C(=O)CCc2nc(CN3CCN(C(=O)c4ccc(Br)o4)CC3)no2)CC1` was tested, and the “% Inhibition @ 10 uM” value was 5.29%.
In the case of `NC(=O)CSc1nc2c(c(=O)n1Cc1ccccc1)SCC2`, the “% Inhibition @ 10 uM” value is reported as 6.79%.
With `CCCOc1cccc(C(=O)Nc2ccc(C(=O)O)cc2)c1` the “% Inhibition @ 10 uM” value was 13.1%.
In the case of `Cc1cc(C)c2c(N)c(C(=O)NC(C)c3ccccc3)sc2n1` (stereo not drawn), the “% Inhibition @ 10 uM” value is reported as 0.0289%.
`COc1cccc(C2NC(=O)NC(c3ccccc3)=C2C(=O)c2ccccc2)c1` (stereo not drawn) was tested, and the “% Inhibition @ 10 uM” value was -1.37%.
`O=S(=O)(c1ccccc1)c1cnc2ccccc2c1N1CCN(Cc2ccccc2)CC1` was tested, and the “% Inhibition @ 10 uM” value was -9.3%.
For `CCCCN(C)CCNC(=O)c1cc2c(C)nc3ccccc3c2o1`, the “% Inhibition @ 10 uM” value was -5.49%.
For `Cc1ccc2c(=O)c(C(=O)c3cccc(Cl)c3)cn(CC(=O)NCCCc3ccccc3)c2n1`, the “% Inhibition @ 10 uM” value was -3.13%.
For `c1ccc2c(c1)nnn1c3ccccc3nc21`, the “% Inhibition @ 10 uM” value was 1.13%.
`CC(C)n1c(-c2ccc(C(=O)N3CCN(C)CC3)cc2)nc2ccccc21` was tested, and the “% Inhibition @ 10 uM” value was 83.9%.
For `COc1ccc(-c2noc(CNC(=O)c3ccc(C)c(Cl)c3)n2)cc1`, the “% Inhibition @ 10 uM” value was -4.82%.
In the case of `Cc1oc2c(C)c3oc(=O)c(CC(=O)NCc4ccco4)c(C)c3cc2c1-c1ccccc1`, the “% Inhibition @ 10 uM” value is reported as 5.68%.
In the case of `CC(Nc1ccc([N+](=O)[O-])c2cccnc12)c1ccccc1` (stereo not drawn), the “% Inhibition @ 10 uM” value is reported as -1.64%.
With `O=S(=O)(NC1CCN(Cc2ccccc2)CC1)c1ccccc1` the “% Inhibition @ 10 uM” value was 4.03%.
For `Cn1c2c(c(=O)n(C)c1=O)CN(c1ccc3c(c1)OCCO3)CN2`, the “% Inhibition @ 10 uM” value was -15.4%.
With `CCC1=C(c2ccc(C)cc2)S(=O)(=O)N=C1N1CCC(C(=O)NCc2ccc(CC)cc2)CC1` the “% Inhibition @ 10 uM” value was -0.0309%.
In the case of `COc1ccc(C2C(C(=O)c3ccccc3)=C(O)C(=O)N2CC(=O)O)c(OC)c1` (stereo not drawn), the “% Inhibition @ 10 uM” value is reported as -7.45%.
With `CC1CC(O)N(C(=O)c2ccccc2)N1Cc1ccccc1` (stereo not drawn) the “% Inhibition @ 10 uM” value was -1.99%.
